In PubChem BioAssay AID1508623 (National Center for Advancing Translational Sciences (NCATS), 2021):
About 450 (0.94%) of roughly 48,000 compounds were called active. Not shown: some 19% with an inconclusive outcome. Calls come from the whole dose curve; as a rule, active = well fitted inhibition curve with a large enough effect; inconclusive = small, poorly fitted or top-dose-only effect; inactive = no such curve, though single readings can be large or run the other way. This is one part of the list.

Assay: Primary qHTS for Identification of Small Molecule Inhibitors of Huntingtin Promoter Activity; note: nearly all actives have a fitted effect of over 50% in size
Conditions: HEK293 HTT promoter firefly luciferase reporter (activity 0% = vehicle and -100% = no light), 24 h; series mostly up to 57.5 µM; activity change, negative = inhibition: at the top concentration
Method in brief: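 Quantitative HTS used concentration series of up to 57.5 uM final on HEK293 luciferase reporter cells, 24 h at 37 degrees C. Readout was Dual-Glo firefly luminescence.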
Potency is the fitted concentration of half-maximal effect.

| Compound | activity change, negative = inhibition | Potency |
| --- | --- | --- |
| COc1ccc(-c2cc(C(F)(F)F)nc(SCC(=O)NCC(C)C)n2)cc1OC | inactive: -6.47% | – |
| Cc1ccn2c(=O)cc(COc3cccc(NC(=O)Nc4cccc(Cl)c4C)c3)nc2c1 | inactive: -8.36% | – |
| COc1ccccc1NC(=O)C1=C(C)Nc2nc3ccccc3n2C1c1cccc(OC)c1OC (stereo not drawn) | inactive: -4.69% | – |
| O=C(NCCCN1CCOCC1)c1ccc2c(c1)N(Cc1cccc(Cl)c1)C(=O)c1ccccc1S2 | inactive: -25.3% | – |
| O=C(Cn1cc(S(=O)(=O)c2ccccc2)c(=O)c2cc(Cl)ccc21)Nc1ccc2c(c1)OCO2 | inactive: -16.1% | – |
| COc1ccc(NC(C)=O)cc1NC(=O)CN1CCN(c2ccc(F)cc2)CC1 | inactive: -21.3% | – |
| CCOc1cc(C(=O)NCC(c2ccc(N(C)C)cc2)N2CCOCC2)cc(OCC)c1OCC (stereo not drawn) | inactive: -14.6% | – |
| Cc1ccc(-c2cn3c(n2)sc2cc(C(=O)NCCCc4ccccc4)ccc23)c(C)c1 | inactive: -19.9% | – |
| CCCCN(CCCNC(=O)c1cc(Nc2ccc(OC)c(OC)c2)nc2ccccc12)c1ccccc1 | inactive: 15.3% | – |
| CC1CCCN(S(=O)(=O)c2ccc3c(c2)c(=O)nc2ccccn23)C1 (stereo not drawn) | inactive: -21.7% | – |
| CC(=O)O[C@@]12CO[C@@H]1C[C@H](O)[C@@]1(C)C(=O)[C@H](O)C3=C(C)[C@@H](OC(=O)[C@H](O)[C@@H](NC(=O)OC(C)(C)C)c4ccccc4)C[C@@](O)([C@@H](OC(=O)c4ccccc4)[C@H]21)C3(C)C | inactive: -23.2% | – |
| Cc1ccc2oc(=O)n(CCCOc3ccccc3Cl)c2c1 | inactive: 64.1% | – |
| Cc1cc(C)c(S(=O)(=O)NCC(c2ccc(N(C)C)cc2)N2CCOCC2)c(C)c1 (stereo not drawn) | inactive: -12.9% | – |
| COc1ccccc1-c1noc(-c2ccc(NCC3CCCO3)c([N+](=O)[O-])c2)n1 (stereo not drawn) | inactive: 39.7% | – |
| CC(CCc1ccccc1)NC(=O)Cn1c(=O)nc(-c2ccccc2)c2ccccc21 (stereo not drawn) | inactive: 4.2% | – |
| CCOC(=O)c1cnc2c(C)c(Cl)ccc2c1Nc1ccc(N2CCOCC2)cc1 | inactive: -7.4% | – |
| Cc1ccccc1Nc1c(-c2cccnc2)nc2ccc(Cl)cn12 | inactive: -27.1% | – |
| CCCCN(C)CCNC(=O)CN1C(=O)CSc2ccc(S(=O)(=O)N3CCOCC3)cc21 | inactive: 4.9% | – |
| CCCN1CCN(CC2=C(C(=O)OCC)C(c3ccc(OC(C)C)cc3)NC(=O)N2)CC1 (stereo not drawn) | inactive: -0.0099% | – |
| CCn1c(=O)c(=O)n(CC)c2cc(N3CCCCC3)c(NC(=O)c3ccccc3OC)cc21 | inactive: -1.46% | – |

| Compound | activity change, negative = inhibition | Potency |
| --- | --- | --- |
| CCOc1ccc(-c2nc(CSCC(=O)NCCc3ccc(OCC)c(OCC)c3)c(C)o2)cc1 | – | active: 14.1 µM |
| COc1ccccc1-c1c(C)nn2c(N3CCN(c4ccccc4)CC3)cc(C)nc12 | inactive: -13.9% | – |
| COc1ccc(OC)c(CNC(=O)CN2N=C(c3ccc(Cl)cc3)CCC2=O)c1 | inactive: -8.25% | – |
| CCC(C)NC(=O)CSc1c2c(nc3cc(Cl)ccc13)CCCC2 (stereo not drawn) | inactive: 0.282% | – |
| CCCOC1(C(F)(F)F)NC(=O)N(c2cccc(Cl)c2)C1=O (stereo not drawn) | inactive: -13.8% | – |
| C=Cc1ccc(Cn2c(C(=O)O)c(CNC3CCCCC3)c3ccc(OC)cc32)cc1 | inactive: -10.4% | – |
| COc1cccc(CNC(=O)C(=O)NCC(c2ccc3c(c2)OCO3)N2CCOCC2)c1 (stereo not drawn) | inactive: -24.4% | – |
| CCOc1ccc(NC(=O)CSc2nnc(CNC(=O)C34CC5CC(CC(C5)C3)C4)n2CC)cc1 | inactive: -26.8% | – |
| CCOC(=O)c1ccccc1NC(=O)Nc1cc2c(cc1N1CCCC1)n(C)c(=O)n2C | inactive: -17.7% | – |
| Cc1cc2oc(C(=O)Nc3cccc(-c4nc5ccccc5o4)c3)c(C)c2cc1C | inactive: 2.79% | – |
| COc1ccc(-n2nc3cc(C)c(NC(=O)Cc4ccc(Cl)cc4)cc3n2)cc1 | inactive: 6.9% | – |
| O=C(CSc1nc(=O)n(Cc2ccncc2)c2c1CCC2)Nc1ccc(F)cc1F | inactive: -4.53% | – |
| CCCN1CN=C(NS(=O)(=O)c2ccc(NC(C)=O)cc2)NC1 | inactive: -17.1% | – |
| CC(Oc1ccccc1)C(=O)Nc1ccccc1C(=O)OCc1cc(=O)n2nc(C(C)C)sc2n1 (stereo not drawn) | inactive: -6.92% | – |
| CCc1ccc(NC(=O)CSc2nc(-c3cccc(OC)c3)nc3c2Cc2c(CO)cnc(C)c2O3)cc1 | inactive: -13.2% | – |
| COc1cc(C(=O)N(Cc2ccc(N(C)C)cc2)CC2CCCO2)cc(OC)c1OC (stereo not drawn) | inactive: -0.973% | – |
| Cc1c(C(=O)N(C)C)sc2c1c(=O)n(-c1ccc(Cl)c(Cl)c1)c(=O)n2CC(=O)N1CCCCC1C (stereo not drawn) | inactive: -4.41% | – |
| CCCC12CN3CC(CCC)(CN(C1)C3c1ccc(OC(C)C)cc1)C2=O (stereo not drawn) | inactive: -17.3% | – |
| COc1cccc(Cn2c(C)c(CNC3CCCCC3)c(C(=O)O)c2C)c1 | inactive: 1.91% | – |
| COc1ccc(-c2noc(-c3ccc(N4CCN(c5ccccc5OC)CC4)c([N+](=O)[O-])c3)n2)cc1 | inactive: -6.97% | – |

| Compound | activity change, negative = inhibition | Potency |
| --- | --- | --- |
| COc1ccc(N2CCN(C(=O)CN3C(=O)COc4ccc(S(=O)(=O)N5CCC(C)CC5)cc43)CC2)cc1 | inactive: -24.6% | – |
| COc1ccc(N2CC(NC(=O)C3CCCCC3)CC2=O)cc1OC (stereo not drawn) | inactive: -8.9% | – |
| O=C(c1cnc2c(c1)COc1ccc(Cl)cc1-2)c1ccccc1O | inactive: -4.91% | – |
| CCOc1ccc(NC(=O)CCCOc2cc(=O)n(C)c3ccccc23)cc1 | inactive: -5.38% | – |
| Clc1ccccc1CSc1nnc(C2CCNCC2)o1 | inactive: -8.65% | – |
| Cc1ccc2nc(-c3ccc(C)o3)c(Nc3ccc4c(c3)OCCO4)n2c1 | inactive: 34.2% | – |
| COc1ccc(NC(=O)c2oc3ccccc3c2NC(=O)Cc2coc3ccc(C)cc23)cc1 | inactive: 7.69% | – |
| CCOc1cc(CNC(=O)c2ccc3nc(C(C)C)oc3c2)cc(OCC)c1OCC | inactive: -20.8% | – |
| CCCCN(CC)C(=O)c1nn(-c2ccc(OC)cc2)c(=O)c2c1c1ccccc1n2C | inactive: -9.88% | – |
| Cc1ccc(C)c(N2CCN(C(=O)c3cc4c(=O)oc5ccccc5c4s3)CC2)c1 | inactive: -4.97% | – |
| O=C(Cn1c(=O)n(-c2ccccc2)c(=O)c2ccc(C(=O)NCc3ccc4c(c3)OCO4)cc21)Nc1ccc(Br)cc1 | inactive: -28.4% | – |
| O=C(CSc1nc2ncccc2o1)Nc1cccc(C(F)(F)F)c1 | inactive: 20.7% | – |
| O=C(c1ccc(Nc2nccc(-c3cc4ccccc4s3)n2)cc1)N1CCC(N2CCCC2)CC1 | inactive: -22% | – |
| Cc1nc(SCC(=O)Nc2nsc(-c3ccc(C(C)(C)C)cc3)n2)c2c3c(sc2n1)CCCC3 | inactive: -21.6% | – |
| Nc1ncnc2c1ncn2[C@@H]1O[C@H](CO)[C@@H](O)[C@H]1O | inactive: -8.19% | – |
| CCN(C(=O)CSc1nc(-c2ccccc2)no1)c1ccccc1 | inactive: -9.15% | – |
| Cc1ccc2occ(-c3cc(-c4ccc(F)cc4)nc4c3COc3ccc(F)cc3-4)c(=O)c2c1 | inactive: -11.5% | – |
| Cc1ccccc1CSc1nc(-c2cccc(F)c2)nc2c1Cc1c(CO)cnc(C)c1O2 | inactive: -8.73% | – |
